About 14,000 (4.5%) of roughly 310,000 compounds showed an effect of 50% or more. Effects have a minus sign here. Some of the results follow.
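Note: peak tail current of the secondary pulse compared with the same well before compound.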

The target of this assay is human ether-à-go-go-related gene (hERG) potassium channel (human, UniProt Q12809). Kind of assay: primary screen, population patch clamp on CHO cells stably expressing hERG.
Sequence of human ether-à-go-go-related gene (hERG) potassium channel (Q12809 whole entry, looked up): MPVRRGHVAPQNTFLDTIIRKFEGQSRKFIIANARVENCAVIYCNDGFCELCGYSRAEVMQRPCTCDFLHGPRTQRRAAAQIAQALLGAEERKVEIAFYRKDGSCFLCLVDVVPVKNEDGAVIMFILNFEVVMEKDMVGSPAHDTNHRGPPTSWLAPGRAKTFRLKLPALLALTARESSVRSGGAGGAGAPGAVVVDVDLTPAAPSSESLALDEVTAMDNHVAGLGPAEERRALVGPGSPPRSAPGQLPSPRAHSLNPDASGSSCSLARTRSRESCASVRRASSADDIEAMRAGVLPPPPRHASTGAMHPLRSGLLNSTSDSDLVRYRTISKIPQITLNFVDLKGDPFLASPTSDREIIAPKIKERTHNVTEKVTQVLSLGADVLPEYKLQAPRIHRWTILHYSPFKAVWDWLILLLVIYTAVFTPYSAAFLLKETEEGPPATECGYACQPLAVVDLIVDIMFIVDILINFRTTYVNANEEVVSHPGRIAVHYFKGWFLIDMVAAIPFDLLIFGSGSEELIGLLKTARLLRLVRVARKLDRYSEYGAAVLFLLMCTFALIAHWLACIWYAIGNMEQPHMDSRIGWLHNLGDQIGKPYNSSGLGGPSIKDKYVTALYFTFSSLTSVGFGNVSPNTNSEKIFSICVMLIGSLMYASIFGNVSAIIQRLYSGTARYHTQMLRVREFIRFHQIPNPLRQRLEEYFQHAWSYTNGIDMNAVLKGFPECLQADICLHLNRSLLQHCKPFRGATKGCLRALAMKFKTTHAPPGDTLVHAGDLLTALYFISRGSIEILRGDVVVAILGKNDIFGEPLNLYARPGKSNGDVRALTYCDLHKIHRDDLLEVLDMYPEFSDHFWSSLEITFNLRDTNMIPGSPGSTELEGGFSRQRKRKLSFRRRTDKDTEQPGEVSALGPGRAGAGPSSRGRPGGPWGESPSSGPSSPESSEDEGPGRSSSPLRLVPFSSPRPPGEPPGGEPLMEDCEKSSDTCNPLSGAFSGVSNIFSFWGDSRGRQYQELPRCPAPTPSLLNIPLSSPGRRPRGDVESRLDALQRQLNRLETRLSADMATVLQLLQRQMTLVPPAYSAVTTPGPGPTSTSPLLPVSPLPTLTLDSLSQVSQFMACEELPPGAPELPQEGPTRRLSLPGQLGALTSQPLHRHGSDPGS
For the compound `O=C(O)CCSc1nnc(-c2ccccc2)n1-c1ccccc1`, the “hERG current change (%, negative = inhibition) at 10uM” value is -3.32%.
The value for `CN(Cc1ccccc1)C(=O)COC(=O)COc1ccc(C#N)cc1` was -18.1%.
With `CCS(=O)(=O)N1CCC(C(=O)NC2CCCCCCC2)CC1`, the “hERG current change (%, negative = inhibition) at 10uM” value is -3.45%.
As for `CCCOC(=O)c1ccc(NC(=O)C(=O)NCCN(CC)CC)cc1`, the “hERG current change (%, negative = inhibition) at 10uM” value was -52.1%.
For the compound `CCCCN1C(=O)N(C)C2C1N(C)C(=O)N2CCCC` (centres unmarked), the “hERG current change (%, negative = inhibition) at 10uM” value is on record as -5.25%.
For the compound `Cc1cc(C)c2nc(N(CCCN(C)C)C(=O)c3ccc4c(c3)OCCO4)sc2c1.Cl`, the “hERG current change (%, negative = inhibition) at 10uM” value is listed as -51.2%.
For `Cc1ccc(N/C=C/C(=O)c2cccs2)cc1C`, the “hERG current change (%, negative = inhibition) at 10uM” value is 13.6%.
Take `Cc1[nH]c2ccccc2c1C1=CN2CCS(=O)(=O)N=C2S1`: the “hERG current change (%, negative = inhibition) at 10uM” value turned out to be 3.62%.
Turning to `Cc1ccc(Cn2c(SCC(C)C)nc3c2c(=O)n(C)c(=O)n3C)cc1`, the “hERG current change (%, negative = inhibition) at 10uM” value is on record as 4.03%.
As to `O=C(O)c1c(NC(=O)N2CCCC2)sc2c1CCCC2`, the “hERG current change (%, negative = inhibition) at 10uM” value was found to be 26.8%.
In the case of `O=C(Cn1ccccc1=O)NCc1ccc(F)cc1`, the “hERG current change (%, negative = inhibition) at 10uM” value was 8.94%.
With `Cc1ccc(C2(C(F)(F)F)NC(=O)N3C(=C2C#N)Nc2ccccc23)cc1` (centres unmarked), the “hERG current change (%, negative = inhibition) at 10uM” value stood at 7.65%.
For the compound `COC(=O)CN1C(=O)C(O)(CC(=O)c2ccc(C)cc2)c2ccccc21` (centres unmarked), the “hERG current change (%, negative = inhibition) at 10uM” value is on record as 14.7%.
Turning to `CCNc1ccc(N=Nc2c(C)n(C)n(-c3ccccc3)c2=O)cc1`, the “hERG current change (%, negative = inhibition) at 10uM” value is -23.1%.
`COc1ccc(CCNc2cc(C)nc3c(-c4ccccc4OC)cnn23)cc1OC`: the “hERG current change (%, negative = inhibition) at 10uM” value is 14.1%.
For `Cc1ccc(NC(=O)CSc2nnc(CNC(=O)c3ccco3)n2C)c(C)c1`, the “hERG current change (%, negative = inhibition) at 10uM” value is given as 3.91%.
On to `CCCCn1c(=O)c2ccccc2c2ccccc2c1=O`, for which the “hERG current change (%, negative = inhibition) at 10uM” value worked out at 1.78%.
In the case of `CCC(C)c1ccc(O)c(NC(=O)c2ncn[nH]2)c1` (centres unmarked), the “hERG current change (%, negative = inhibition) at 10uM” value is given as 14.9%.
For the compound `CC(=O)c1ccc(S(=O)(=O)NCCC(=O)OCC(=O)N(Cc2ccccc2)C(C)(C)C)cc1`, the “hERG current change (%, negative = inhibition) at 10uM” value was -24.5%.
Regarding `CC(=O)c1sc(NC(=O)c2ccc(F)c(S(=O)(=O)N3CCOCC3)c2)nc1C`, the “hERG current change (%, negative = inhibition) at 10uM” value is reported as 12.4%.
Turning to `CC(C)(C)c1ccc(C(=O)c2c[nH]c(C(=O)NCc3ccco3)c2)cc1`, the “hERG current change (%, negative = inhibition) at 10uM” value is recorded as 2.5%.
With `Cc1ccc(NC(=O)Cc2nnc(SCC(=O)Nc3ccc(N4CCOCC4)cc3)n2C)cc1`, the “hERG current change (%, negative = inhibition) at 10uM” value is 8.44%.
As for `CC(C)CC1NC(=O)N(Cc2cc(=O)n3ccsc3n2)C1=O` (centres unmarked), the “hERG current change (%, negative = inhibition) at 10uM” value is -49%.
Consider `CCN1C(=O)C(=O)N(CC(=O)N2CCC(C)Sc3ccccc32)C1=O` (centres unmarked), for which the “hERG current change (%, negative = inhibition) at 10uM” value is given as -12%.
Turning to `COc1ccc(CNC(=O)C2CCCN2S(=O)(=O)c2ccccc2)cc1` (centres unmarked), the “hERG current change (%, negative = inhibition) at 10uM” value amounted to 33.9%.
Regarding `O=C(Nc1nnc(S(=O)(=O)Nc2ccccc2)s1)C1CCCCC1`, the “hERG current change (%, negative = inhibition) at 10uM” value came to 11.6%.
Take `COc1cccc(CN2C(=O)NC3(CCCCCC3)C2=O)c1`: the “hERG current change (%, negative = inhibition) at 10uM” value turned out to be 5.21%.
Regarding `Cc1ccc(NC(=O)N2CCC(C(=O)NCC(C)C)CC2)cc1`, the “hERG current change (%, negative = inhibition) at 10uM” value stood at 9.74%.
Turning to `Fc1ccc(-n2nnnc2-c2cnc(-c3cccs3)nc2C(F)(F)F)cc1`, the “hERG current change (%, negative = inhibition) at 10uM” value is 4.01%.
With `OCCC1CN(C/C(Cl)=C/c2ccccc2)CCN1C1CCCC1` (centres unmarked), the “hERG current change (%, negative = inhibition) at 10uM” value is recorded as -77.4%.
Consider `O=C(c1cccs1)N1CCCC(c2nc3c(nnn3Cc3c(Cl)cccc3Cl)c(=O)[nH]2)C1` (centres unmarked), for which the “hERG current change (%, negative = inhibition) at 10uM” value is recorded as -46.9%.
`COc1cccc(/C=C2\SC(=S)N(C(C(=O)O)c3ccccc3)C2=O)c1OC` (centres unmarked): the “hERG current change (%, negative = inhibition) at 10uM” value is 6.28%.
As for `Cc1ccc(N2CCN(c3ccc(NCc4nc5ccccc5n4C)cc3)CC2)cc1`, the “hERG current change (%, negative = inhibition) at 10uM” value is -1.66%.
The figure for `CCCCCN1CC(=O)N2C(C)c3[nH]c4ccccc4c3C[C@H]2C1=O` (some centres unmarked) is 0.205%; for `Cc1cc(NC(=O)COc2ncnc3sc(C)c(C)c23)no1` it is -0.551%; for `Cc1ccc(-c2nc(CS(=O)(=O)CC(=O)NCc3cccc(F)c3)c(C)o2)cc1` it is 9.53%.
Take `COc1ccc(NC(=O)Cn2nc(Cc3cccnc3)c3ccccc3c2=O)c(OC)c1`: the “hERG current change (%, negative = inhibition) at 10uM” value was -32.2%.
With `CCN(CC)S(=O)(=O)c1cccc(C(=O)Nc2cc(C)nn2-c2ccccc2)c1`, the “hERG current change (%, negative = inhibition) at 10uM” value is -27.8%.
Consider `CCn1c(=O)cc(SCC(=O)N2CCN(C3CCCCC3)CC2)c2ccccc21`, for which the “hERG current change (%, negative = inhibition) at 10uM” value was -38.1%.
On to `CCCC(=O)N1CCN(c2nc3ccc(Cl)cc3s2)CC1`, for which the “hERG current change (%, negative = inhibition) at 10uM” value is recorded as -70.2%.
For the compound `O=S(=O)(Nc1cccnc1)c1ccc(Cl)c(C(F)(F)F)c1`, the “hERG current change (%, negative = inhibition) at 10uM” value is listed as -6.18%.
Take `O=C(CSc1ccc(Cl)cc1)Nc1ccccc1Oc1ccccc1`: the “hERG current change (%, negative = inhibition) at 10uM” value is 2.7%.
Take `Cc1ccc(-c2csc(N3CCN(c4cc5c(cc4Cl)nc(C(C)N)n5CCCO)CC3)n2)cc1` (centres unmarked): the “hERG current change (%, negative = inhibition) at 10uM” value is 9.27%.
Regarding `C=C1CCN([C@@H](Cc2ccccc2)C(=O)NCCC(C)C)S(=O)(=O)c2ccccc21`, the “hERG current change (%, negative = inhibition) at 10uM” value is on record as -15.2%.

Values taken from paper PMC4336329 (PLoS ONE, 2015).
